Source: PubChem BioAssay AID360 (National Center for Advancing Translational Sciences (NCATS), 2006)
About 550 (1.1%) of roughly 48,000 compounds were called active. Inconclusive results (about 4%) are left out. No stated cut-off is given here; in the data, active means potency below about 15 µM; inconclusive means mostly about 16 µM to 33 µM; inactive means weaker than that. Some of the results follow.

Biological target: Lysosomal acid glucosylceramidase (Homo sapiens) (UniProt P04062)
Assay: Glucocerebrosidase;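 further: the screen sought inhibitors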
Settings: purified enzyme, resorufin glucoside fluorescence (screen aimed at inhibitors), 20 min
Outline: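 Compounds titrated against 0.2 nM normal enzyme, 30 uM resorufin beta-D-glucopyranoside substrate, citrate/phosphate buffer with taurocholate and tween-20, pH 5.9. Reaction ran 20 min at room temperature; fluorescence (Ex 548/Em 600) gave AC50.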
Potency means the concentration at half of the fitted maximal effect.

Sequence of UniProt P04062 (P04062 whole entry, looked up): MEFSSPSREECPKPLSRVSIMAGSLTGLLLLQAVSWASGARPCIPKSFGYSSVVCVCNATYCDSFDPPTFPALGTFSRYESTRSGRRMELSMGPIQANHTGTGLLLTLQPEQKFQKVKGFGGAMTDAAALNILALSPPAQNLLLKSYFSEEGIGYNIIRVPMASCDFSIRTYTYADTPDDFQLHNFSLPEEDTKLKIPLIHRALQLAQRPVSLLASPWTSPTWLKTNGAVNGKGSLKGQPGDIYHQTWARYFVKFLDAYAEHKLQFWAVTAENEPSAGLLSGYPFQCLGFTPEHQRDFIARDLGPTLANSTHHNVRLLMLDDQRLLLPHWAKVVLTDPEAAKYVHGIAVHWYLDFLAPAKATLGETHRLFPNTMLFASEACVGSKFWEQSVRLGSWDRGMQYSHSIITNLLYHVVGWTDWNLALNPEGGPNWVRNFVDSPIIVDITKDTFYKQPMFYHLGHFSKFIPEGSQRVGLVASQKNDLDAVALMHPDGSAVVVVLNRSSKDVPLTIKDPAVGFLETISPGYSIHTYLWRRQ

Potency, inactive:
COc1ccc(N2CC(C(=O)NCCC3=CCCCC3)CC2=O)cc1 (stereo not given) > 76.9 µM
O=C(Nc1nnc(C2CC2)s1)c1cc(-c2ccccc2)nn1-c1ccccc1 > 76.9 µM
CCOC(=O)N1CCN(C(=O)c2cn(CC(C)C)c(=O)c3c2c2ccccc2n3C)CC1 > 76.9 µM
O=C(NC1CCCC1)c1ccc(S(=O)(=O)N2CCCC2)cc1 > 76.9 µM
CCOC(=O)C(CC)n1cnc2c(nnn2-c2ccc(C)cc2)c1=O (stereo not given) > 76.9 µM
Nc1nc(N)nc(-c2ccccn2)n1 > 76.9 µM
Cc1ccc(-c2cc(-c3ccc(Cl)cc3)c(C#N)c(N)n2)o1 > 76.9 µM
CC(C)CN(CC(C)C)S(=O)(=O)N1CCC(C(=O)NCc2ccccn2)CC1 > 76.9 µM
CS(=O)(=O)N1CCN(c2ccccc2F)CC1 > 76.9 µM
CCn1cc(C(=O)NCCCN2CC(C)CC(C)C2)c2cc(OC)c(OC)cc2c1=O (stereo not given) > 76.9 µM
CCOc1ccc(N(Cc2cc3ccc(C)cc3[nH]c2=O)C(=O)COC)cc1 > 76.9 µM
CC(=O)c1cccc(NC(=O)c2oc(C)nc2C)c1 > 76.9 µM
COCCn1c(Cc2ccccc2)nnc1SCC(=O)NC(C)(C)C > 76.9 µM
CCOC(=O)NC(Nc1nnc(C)s1)(C(=O)OCC)C(F)(F)F (stereo not given) > 76.9 µM
COCC(C)n1c(SCc2ccc(C(=O)OC)o2)nc2ccccc2c1=O (stereo not given) > 76.9 µM
O=C(CCN1CCN(c2ccccc2)CC1)Nc1ccccc1F > 76.9 µM
CCCCCNC(=O)c1cc(S(=O)(=O)N2CCCCC2)ccc1F > 76.9 µM
CCc1nc(N)c(C#N)c(-c2ccc(O)c(OC)c2)c1C > 76.9 µM
COc1ccccc1NC(=O)COc1ccc(CO)cc1Cl > 76.9 µM
CC(=O)N1c2ccccc2C(C)CC12CCCCC2 (stereo not given) > 76.9 µM
CC(=O)N(Cc1cc(=O)[nH]c2ccccc12)c1cccc(C)c1 > 76.9 µM
CC(C)C(C(=O)N1CCOCC1)N1C(=O)c2ccccc2C1=O (stereo not given) > 76.9 µM
COc1ccccc1N1CCN(C(=O)c2ccc(Br)s2)CC1 > 76.9 µM
CCOC(=O)c1ccc(NC(=O)NC2CCN(CC(=O)NCc3ccc4c(c3)OCO4)CC2)cc1 > 76.9 µM
O=C(CSc1nnc(C2CCCCC2)n1-c1ccccc1)NCc1ccco1 > 76.9 µM
